{"source": "paper PMC6919601", "about": "“Identification of Plasmodium dipeptidyl aminopeptidase allosteric inhibitors by high throughput screening” (PLoS ONE, 2019)", "note": "The whole screen tested about 110,000 compounds, of which about 230 (0.21%) showed an effect of 50% or more. This is one part of the list.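 Also: 30 min substrate incubation versus DMSO and 10 µM JCP410 controls.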", "data": [{"target": "DPAP1 (Plasmodium falciparum, UniProt Q8IIJ9)", "sequence (Q8IIJ9 whole entry, looked up)": "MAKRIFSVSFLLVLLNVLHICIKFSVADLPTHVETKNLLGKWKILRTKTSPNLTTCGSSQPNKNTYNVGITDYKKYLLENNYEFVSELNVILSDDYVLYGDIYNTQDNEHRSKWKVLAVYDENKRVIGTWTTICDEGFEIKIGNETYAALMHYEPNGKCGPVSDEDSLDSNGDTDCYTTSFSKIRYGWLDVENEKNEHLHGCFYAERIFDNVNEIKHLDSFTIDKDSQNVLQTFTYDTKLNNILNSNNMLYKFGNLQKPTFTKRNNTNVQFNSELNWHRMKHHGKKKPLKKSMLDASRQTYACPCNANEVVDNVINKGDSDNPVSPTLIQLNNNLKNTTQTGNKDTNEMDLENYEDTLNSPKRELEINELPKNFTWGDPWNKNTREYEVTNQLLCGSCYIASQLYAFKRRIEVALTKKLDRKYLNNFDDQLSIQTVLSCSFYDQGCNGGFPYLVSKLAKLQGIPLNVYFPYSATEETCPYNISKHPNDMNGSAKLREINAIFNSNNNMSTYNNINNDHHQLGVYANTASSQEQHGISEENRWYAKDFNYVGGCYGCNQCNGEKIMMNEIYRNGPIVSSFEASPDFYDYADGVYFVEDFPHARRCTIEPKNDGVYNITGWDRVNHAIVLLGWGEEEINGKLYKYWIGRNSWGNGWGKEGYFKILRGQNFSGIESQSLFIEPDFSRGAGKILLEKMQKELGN", "assay": "primary screen, percent inhibition; read by cleavage of a fluorogenic dipeptide substrate; higher = more effect of the substance", "design": "species or system P. falciparum D10 trophozoite lysates; single well", "units": {"% Inhibition @ 10 uM": "%"}, "values": [{"smiles": "O=c1ccc(=O)n(CN2CCOCC2)[nH]1", "% Inhibition @ 10 uM": -4.03}, {"smiles": "NS(=O)(=O)c1ccc(Nc2nc(-c3cccs3)cs2)cc1", "% Inhibition @ 10 uM": -1.66}, {"smiles": "CN1CCN(Cc2ccc([N+](=O)[O-])s2)CC1", "% Inhibition @ 10 uM": 4.81}, {"smiles": "COc1cccc(C(=O)N2CCN(c3ccccc3)CC2)c1", "% Inhibition @ 10 uM": -0.0947}, {"smiles": "Cc1ccc(OCCn2nnc3sc4c(c3c2=O)CCCC4)cc1", "% Inhibition @ 10 uM": 0.758}, {"smiles": "CC1CCc2c(sc(NC(=O)c3cccc(C(=O)O)c3)c2C(N)=O)C1", "note": "(stereo not shown)", "% Inhibition @ 10 uM": 0.205}, {"smiles": "CCOC(=O)c1c(C)n(-c2ccc(C)cc2)c2ccc(OCC(O)Cn3ccnc3)cc12", "note": "(stereo not shown)", "% Inhibition @ 10 uM": 1.63}, {"smiles": "CC(=O)c1cccc(-c2cccc(C(=O)N[C@@H](CC(C)C)C(=O)NCC#N)c2)c1", "% Inhibition @ 10 uM": -5.2}, {"smiles": "COc1ccc(CN2CCN(C(=O)C3=C(C)C(=O)OC34CCCCC4)CC2)c(OC)c1OC", "% Inhibition @ 10 uM": -8.69}, {"smiles": "O=C1c2ccccc2C(=O)c2cc(OCC(O)Cn3cnc4ccccc43)ccc21", "note": "(stereo not shown)", "% Inhibition @ 10 uM": -1.6}, {"smiles": "O=c1cccc2n1C[C@H]1C[C@@H]2CN(Cc2ccccc2F)C1", "% Inhibition @ 10 uM": -1.85}, {"smiles": "Cc1nn(-c2ccccc2)c2c1N(CCCC(=O)NC1CCCCC1)C(=O)CS2", "% Inhibition @ 10 uM": -3.75}, {"smiles": "Oc1nc(SCc2cccc(F)c2)nc2c1cnn2-c1ccccc1", "% Inhibition @ 10 uM": -3.35}, {"smiles": "CCN(CC)CC(=O)N1CCN(C(=O)CN(CC)CC)CC1", "% Inhibition @ 10 uM": -3.16}, {"smiles": "Cc1cc(C)n(-c2cccc(Cl)c2)c(=O)c1C(=O)O", "% Inhibition @ 10 uM": -12.1}, {"smiles": "CCOC(=O)C1=C(C)N(C)C(=O)NC1c1ccccc1OCC", "note": "(stereo not shown)", "% Inhibition @ 10 uM": -3.14}, {"smiles": "COc1ccc(S(=O)(=O)N[C@@H](CC(C)C)C(=O)O)cc1", "% Inhibition @ 10 uM": -7.23}, {"smiles": "O=C(C1CCCN(c2nc3ccccc3n3cccc23)C1)N1CCN(c2ccccn2)CC1", "note": "(stereo not shown)", "% Inhibition @ 10 uM": 10}, {"smiles": "O=c1oc2ccccc2cc1-c1c(O)nc2ccccc2c1O", "% Inhibition @ 10 uM": -3.74}, {"smiles": "Cc1c(Nc2nc3ccccc3nc2NS(=O)(=O)c2ccccc2)c(=O)n(-c2ccccc2)n1C", "% Inhibition @ 10 uM": -8.11}, {"smiles": "COc1ccc(/C=C2\\SC(=S)N(CC(=O)Nc3ccccc3)C2=O)cc1", "% Inhibition @ 10 uM": 2.86}, {"smiles": "O=C(NCC1COc2ccccc2O1)C1C2C=CC3(CN(Cc4ccccc4Cl)C(=O)C13)O2", "note": "(stereo not shown)", "% Inhibition @ 10 uM": 1.83}, {"smiles": "Cc1ccc(-c2nc(CSc3nc4cccnc4[nH]3)c(C)o2)cc1", "% Inhibition @ 10 uM": 7.01}, {"smiles": "Cc1ccc(NC(=O)CN2CCN(Cc3ccccc3)CC2)cc1Br", "% Inhibition @ 10 uM": -3.25}, {"smiles": "NC(=O)c1ccccc1NS(=O)(=O)c1ccc(Cl)cc1", "% Inhibition @ 10 uM": 2.39}, {"smiles": "CCN(CC)CCNC(=O)CSc1nc2nc(C)c(Cc3ccccc3C)c(C)n2n1", "% Inhibition @ 10 uM": -4.23}, {"smiles": "Cc1cc(C)c2c3c(sc2n1)C1(CCC2(CC1)OCCO2)C(C#N)=C(N)O3", "% Inhibition @ 10 uM": -2.28}, {"smiles": "CS(=O)(=O)CCC(C(=O)N1CCN(Cc2ccccc2)CC1)N1Cc2ccccc2C1=O", "note": "(stereo not shown)", "% Inhibition @ 10 uM": -0.234}, {"smiles": "CC(C)NC1=N/C(=C\\c2ccco2)C(=O)N1c1ccccc1", "% Inhibition @ 10 uM": -6.17}, {"smiles": "Cc1nnn(C23CC4CC(CC(C(=O)NCc5ccccc5)(C4)C2)C3)n1", "% Inhibition @ 10 uM": -2.78}, {"smiles": "COc1cc2c(cc1OC)C(c1cc(Br)ccc1O)NCC2", "note": "(stereo not shown)", "% Inhibition @ 10 uM": -2.59}, {"smiles": "O=C1Nc2ccc(Br)cc2C1(O)Cc1ccccn1", "note": "(stereo not shown)", "% Inhibition @ 10 uM": 2.09}, {"smiles": "Clc1ccc(C2NCCc3c2[nH]c2ccccc32)c(Cl)c1", "note": "(stereo not shown)", "% Inhibition @ 10 uM": 3.1}, {"smiles": "COc1cc2c(cc1OC)C(c1ccccc1Cl)CC(=O)N2", "note": "(stereo not shown)", "% Inhibition @ 10 uM": -1.98}, {"smiles": "CCOc1ccc(NC(=O)COc2ccc(Cl)cc2C)cc1", "% Inhibition @ 10 uM": -9.81}, {"smiles": "CC(=O)c1ccc(/C=C/C(=O)O)o1", "% Inhibition @ 10 uM": 26.5}, {"smiles": "CCOc1ccc(-c2nonc2NC(=O)c2cccs2)cc1OCC", "% Inhibition @ 10 uM": -5.08}, {"smiles": "Cn1nc(C(=O)N2CCC(Cc3ccccc3)CC2)c2c1-c1ccccc1S(=O)(=O)C2", "% Inhibition @ 10 uM": -4.78}, {"smiles": "CCOc1cccc(C2C(C#N)=C(N)Oc3cc(C)nc(O)c32)c1OCC", "note": "(stereo not shown)", "% Inhibition @ 10 uM": -3.63}, {"smiles": "NS(=O)(=O)c1ccc(NC(=O)CCC2CCCCC2)cc1", "% Inhibition @ 10 uM": 0.316}, {"smiles": "CC12CN(Cc3ccccc3Br)CC(C)(CN(C(=S)Nc3ccccc3)C1)C2", "% Inhibition @ 10 uM": 0.878}, {"smiles": "Cc1ccc2c(CNCc3ccc(C)o3)c(C(=O)O)n(Cc3ccccc3F)c2c1", "% Inhibition @ 10 uM": 1.59}, {"smiles": "O=C(Nc1cc(Cl)ccc1Cl)c1cc(Br)ccc1NS(=O)(=O)c1ccc(Cl)c([N+](=O)[O-])c1", "% Inhibition @ 10 uM": 0.266}, {"smiles": "CCCCN(Cc1ccco1)S(=O)(=O)c1ccc(-c2ccc(O)nn2)s1", "% Inhibition @ 10 uM": -4.33}, {"smiles": "CC1CN(C2CCSC2)CC(C)O1", "note": "(stereo not shown)", "% Inhibition @ 10 uM": 2.99}, {"smiles": "CCCCN(Cc1ccco1)C(=O)Cn1nc(Cc2ccncc2)c2ccccc2c1=O", "% Inhibition @ 10 uM": 19}, {"smiles": "Cc1cccc(OCc2nn3c(C4COc5ccccc5O4)nnc3s2)c1", "note": "(stereo not shown)", "% Inhibition @ 10 uM": 2.89}, {"smiles": "Cc1ccc(S(=O)(=O)NCCCCCC(=O)NCCc2ccccc2)cc1", "% Inhibition @ 10 uM": 1.12}, {"smiles": "Cc1cc(OCCCCCn2ccnc2)cc(C)c1Cl", "% Inhibition @ 10 uM": -8.79}, {"smiles": "CC(C)N1CCc2nc3sc(C(=O)NCc4ccc5c(c4)OCO5)c(N)c3cc2C1", "% Inhibition @ 10 uM": -1.05}, {"smiles": "COc1ccccc1/C(O)=C(\\C#N)c1nc2ccccc2[nH]1", "% Inhibition @ 10 uM": 2.7}, {"smiles": "COc1ccc(C2Nn3c(C)nnc3SC2C(=O)NCC2CCCO2)cc1", "note": "(stereo not shown)", "% Inhibition @ 10 uM": -1.94}, {"smiles": "Cc1cc(C)c2c3ccccc3n(C)c2n1", "% Inhibition @ 10 uM": -1.44}, {"smiles": "Cn1c(=O)c(-c2cccc(Cl)c2)c(O)c2ccccc21", "% Inhibition @ 10 uM": 2.11}, {"smiles": "O=C(NC1CC1)c1cc(-c2ccccc2)nc2ccccc12", "% Inhibition @ 10 uM": -1.5}, {"smiles": "Nc1[nH]ncc1-c1ccc(OCc2ccc(Cl)cc2)cc1", "% Inhibition @ 10 uM": -3.96}, {"smiles": "N=C(Cc1cccc2ccccc12)NOC(=O)c1cccs1", "% Inhibition @ 10 uM": 3.66}, {"smiles": "O=c1c2ccccc2n2c(-c3ccccc3)nnc2n1CCc1ccccc1", "% Inhibition @ 10 uM": 1.68}, {"smiles": "COc1ccc(N2C(=O)C3C4c5ccccc5C(C(=O)O)(c5ccccc54)C3C2=O)cc1", "note": "(stereo not shown)", "% Inhibition @ 10 uM": 11.6}, {"smiles": "COc1ccc(C)cc1NCc1cccc(C(F)(F)F)c1", "% Inhibition @ 10 uM": -9.04}, {"smiles": "Cc1ccc(C)c(NCN2C(=O)C3C4C=CC(C4)C3C2=O)c1", "note": "(stereo not shown)", "% Inhibition @ 10 uM": -4.4}, {"smiles": "COc1cc(C(=O)N2CCn3c4c(c5cc(C)ccc53)CCCC42)cc(OC)c1OC", "note": "(stereo not shown)", "% Inhibition @ 10 uM": -2.18}, {"smiles": "CC(C)N1CC(COc2ccccc2)OC1=O", "note": "(stereo not shown)", "% Inhibition @ 10 uM": -8.11}, {"smiles": "COc1ccc(CNc2c(S(=O)(=O)c3ccc(C)cc3)cnc3ccccc23)cc1", "% Inhibition @ 10 uM": -10.6}]}]}
